The campaign covered roughly 310,000 compounds. About 2,200 (0.71%) showed an effect of 50% or more. The effect is printed as a negative number. This is one part of the list.
These compounds were tested against human ether-à-go-go-related gene (hERG) potassium channel (human, UniProt Q12809) (assay: primary screen, population patch clamp on CHO cells stably expressing hERG).
Sequence of human ether-à-go-go-related gene (hERG) potassium channel (Q12809 whole entry, looked up): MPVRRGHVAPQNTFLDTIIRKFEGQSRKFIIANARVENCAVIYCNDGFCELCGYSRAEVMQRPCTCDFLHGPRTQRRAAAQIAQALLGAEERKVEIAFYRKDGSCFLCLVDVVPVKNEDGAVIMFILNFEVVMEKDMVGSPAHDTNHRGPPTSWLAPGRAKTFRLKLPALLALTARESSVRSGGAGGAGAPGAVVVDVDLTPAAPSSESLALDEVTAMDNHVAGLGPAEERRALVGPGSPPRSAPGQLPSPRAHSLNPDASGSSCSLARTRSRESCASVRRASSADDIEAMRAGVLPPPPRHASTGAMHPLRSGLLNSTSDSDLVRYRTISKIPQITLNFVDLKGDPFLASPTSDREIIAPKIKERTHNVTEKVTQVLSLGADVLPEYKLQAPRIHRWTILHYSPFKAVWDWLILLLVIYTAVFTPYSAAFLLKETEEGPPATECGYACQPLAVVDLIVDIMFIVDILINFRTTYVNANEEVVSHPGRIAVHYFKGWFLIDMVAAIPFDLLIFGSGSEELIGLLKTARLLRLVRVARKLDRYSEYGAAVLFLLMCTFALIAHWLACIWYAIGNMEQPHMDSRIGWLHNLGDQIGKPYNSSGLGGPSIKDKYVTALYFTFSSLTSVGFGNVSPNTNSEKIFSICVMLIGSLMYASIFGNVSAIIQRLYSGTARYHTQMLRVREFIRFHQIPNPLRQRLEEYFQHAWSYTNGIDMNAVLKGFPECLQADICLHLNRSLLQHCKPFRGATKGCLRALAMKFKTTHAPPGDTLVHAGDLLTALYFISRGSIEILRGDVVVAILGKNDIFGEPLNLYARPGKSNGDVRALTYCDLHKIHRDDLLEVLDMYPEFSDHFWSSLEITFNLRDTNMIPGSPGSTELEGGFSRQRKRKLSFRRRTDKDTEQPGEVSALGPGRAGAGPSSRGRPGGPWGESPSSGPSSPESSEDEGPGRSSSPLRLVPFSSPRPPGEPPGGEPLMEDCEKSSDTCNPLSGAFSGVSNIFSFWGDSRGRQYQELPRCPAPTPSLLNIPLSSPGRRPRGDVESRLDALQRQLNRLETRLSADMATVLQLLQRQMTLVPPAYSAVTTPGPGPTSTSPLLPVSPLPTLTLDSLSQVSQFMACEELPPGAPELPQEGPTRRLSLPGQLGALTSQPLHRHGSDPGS

| Structure (SMILES) | hERG current change (%, negative = inhibition) at 1uM |
| --- | --- |
| CCOCCCNC(=S)NCCNc1nc2ccc(C)cc2cc1C#N | 4.11% |
| N#Cc1ccc2ccn(CC(=O)NC3CCCCCC3)c2c1 | 15.5% |
| Fc1ccc(CO/N=C/C2=C(Cl)c3ccccc3CC2)cc1 | 15.4% |
| COP(=O)(OC)C(NC(C)=O)C(Cl)(Cl)Cl (centres unmarked) | 10.7% |
| Cc1nn(C(C)C(=O)NCCCN2CCCCCC2)c(=O)c2cc3sccc3n12 (centres unmarked) | 4.7% |
| COc1cccc(/C=C/C(=O)N2CCN(c3n[nH]c(=O)[nH]c3=O)CC2)c1OC | 11% |
| C[C@@H](C(=O)Nc1ccc2ccccc2c1)[C@@H]1C[C@@]1(C)[C@@H](N)c1ccccc1.Cl | 14% |
| COc1ccc(C2OCC3(CO2)SC(N)=NC3=O)cc1 (centres unmarked) | 13.4% |
| CC(C)C(=O)NC(Nc1cccc2cccnc12)C(Cl)(Cl)Cl (centres unmarked) | 9.12% |
| CCC(=O)Nc1cc2[nH]c(=O)cc(C)c2cc1C | 18.2% |
| COc1ccc(S(=O)(=O)NCc2ccc3c(c2)OCO3)cc1C(=O)O | 13.8% |
| CC(C)N1C(=O)CCC1C(=O)NCc1ccco1 (centres unmarked) | -4.2% |
| CC(=O)c1c(COC(=O)c2ccc(F)cc2)nc2ccccc2[n+]1[O-] | 11.8% |
| FC(F)(F)c1nnc(Nc2ccc(Cl)cc2)s1 | 12% |
| COc1ccc(-c2cc(C(F)(F)F)nc(SCC(=O)N(C)Cc3cn(C)nc3C)n2)cc1OC | -3.07% |
| Cc1ccc(C(C)(c2ccc(N)cc2)c2ccc(N)cc2)cc1 | 11.7% |
| CCN1CCN(C(=O)CCS(=O)(=O)c2cc3c(cc2Cl)NC(=O)CO3)CC1 | 7.42% |
| Cc1ccc(/C=C/C(=O)OCC(=O)NC(=O)NCc2ccco2)cc1 | 11.6% |
| Cc1ccc(NC(=O)CCN2CCOCC2)cc1C | 11.1% |
| Cc1cccc(C)c1NC1=NCCCCC1 | 0.733% |
| Fc1cccc(NC(=S)NCc2ccc(Cl)cc2)c1 | 3.05% |
| O=c1c2c3c(sc2n(CCN2CCCCC2)c(=O)n1Cc1ccco1)CCCCC3 | 3.26% |
| CC1CCCN(S(=O)(=O)c2ccc(NC(=O)CN3CCN(C)CC3)cc2)C1.Cl (centres unmarked) | 5.9% |

| Structure (SMILES) | hERG current change (%, negative = inhibition) at 1uM |
| --- | --- |
| CCCc1nc2ccccc2c(=O)n1/N=C/c1ccc(O)cc1O | -0.0666% |
| CCCNC(=S)Nc1ccc(Cl)cc1Cl | 5.16% |
| CSc1cccc(NC(=O)CCn2c(=O)c3cccn3c3cccnc32)c1 | 11.2% |
| CCN(CC)S(=O)(=O)c1ccc2c(c1)nc(SCn1nnc3ccccc3c1=O)n2CC | 20.7% |
| O=C(N/N=C/c1cccn1-c1cccc(C(=O)O)c1)Nc1ccccc1 | 10.7% |
| Cc1ccc(NC(=O)CS(=O)CC(=O)NCC2CCCO2)cc1 (centres unmarked) | 10.2% |
| CC(C)OC(=O)CSc1nc2cc3c(cc2cc1C#N)OCO3 | 13.1% |
| C/C(=N\NS(=O)(=O)c1ccc([N+](=O)[O-])cc1)c1ccc(NC(=O)c2ccco2)cc1 | 10.3% |
| Cc1c(CBr)[n+](=O)c2c(n1[O-])C(Br)CCC2Br (centres unmarked) | 17.6% |
| CC(=O)Nc1ccc(NC(=O)Oc2ccccc2)cc1 | 17.4% |
| CCOC(=O)Oc1ccc2oc(=O)cc(C)c2c1 | 19.2% |
| CCc1ccccc1NC(=O)CCCN1C(=O)c2cccnc2C1=O | 11.9% |
| COc1cc2sc(C)nc2c2sccc12 | 7.65% |
| CN1CCOc2cc(S(=O)(=O)NCc3ccc(S(N)(=O)=O)cc3)ccc21 | 8.67% |
| Cc1ccccc1CN1C(=O)/C(=C\c2ccc(C(=O)NCCN3CCOCC3)cc2)Sc2ccccc21 | 10.8% |
| CC(C)CN(C(=O)COC(=O)Cn1cnc2ccccc2c1=O)C1CCS(=O)(=O)C1 (centres unmarked) | 14.5% |
| COc1cc(Cc2ccc(N)c(OC)c2)ccc1N | 9.15% |
| CCN=C1S/C(=C\c2cc(Cl)c(OC)c(OC)c2)C(=O)N1CC | 6.92% |
| Cc1ccc(S(=O)(=O)NNC(=O)Nc2ccc(Cl)c(Cl)c2)cc1 | 10% |
| O=C(Nc1ccc(Cl)cc1)NC1(C(=O)NCCCN2CCOCC2)CCCCC1 | 3.73% |
| Cc1ccc(NC(=O)c2cc(=O)[nH]c3ccc(S(=O)(=O)N4CCOCC4)cc23)cc1 | 6.31% |
| O=C(Nc1ccc(F)cc1)N1CCn2c(nc3ccccc32)C1 | -3.54% |
| O=C(Nc1ccccc1)Nc1cc([N+](=O)[O-])ccc1F | 11.5% |

| Structure (SMILES) | hERG current change (%, negative = inhibition) at 1uM |
| --- | --- |
| Cc1ccc(-c2ccc(/C=N/c3ncn[nH]3)o2)cc1Cl | 12% |
| CCn1c(CNC(=O)c2ccco2)nnc1SCC(=O)c1ccc(OC)cc1 | 7.01% |
| Cc1[nH]c2ccccc2c1C(Nc1nccs1)c1ccncc1 (centres unmarked) | 20% |
| CC(Sc1nc(C(C)(C)C)cc(-c2ccccc2)c1C#N)C(=O)Nc1ccccc1 (centres unmarked) | -3.03% |
| CSCC(C)N1CCC(CCC(=O)NC2CC2)CC1 (centres unmarked) | 4.72% |
| Cn1c(COc2ccc(C(=O)O)cc2)nc2ccccc21 | 14.2% |
| COc1ccc(Cl)cc1N(CC(=O)NC1CC1)S(=O)(=O)c1ccc(C)c([N+](=O)[O-])c1 | 5.89% |
| CCCn1c(=O)c(Br)cn(-c2ccccc2C)c1=O | 16.1% |
| O=C(NCc1ccccc1)c1ccc(CS(=O)(=O)Cc2ccc(F)cc2)o1 | 17% |
| Clc1cccc(-c2ccc(/C=N/n3cnnc3)o2)c1 | 5.64% |
| COc1ccc(/C=C/C(=O)OCC(=O)NC2CCCC2)c(OC)c1 | 5.24% |
| Cn1nc2c3ccccc3n(Cc3ccccc3)c2nc1=S | 13.4% |
| O=C(NCC1CCCO1)c1ccc2c(c1)ncn2-c1cccc(F)c1 (centres unmarked) | -2.48% |
| CCc1ccc(O)c(CNCCNCc2cc(CC)ccc2O)c1 | 21.1% |
| Cc1noc(C)c1COc1ccc(C(=O)OCc2nnc(-c3ccc(Cl)cc3)o2)cc1 | 17.2% |
| Cc1cc(C=C2C(=O)N(C)C(=S)N(C)C2=O)c(C)n1-c1cccnc1 | 9.58% |
| C=C(C)COc1ccc2c(CC)cc(=O)oc2c1C | 15.8% |
| CCOC(=O)Cc1csc(NC(=O)COc2ccc3c(C)cc(=O)oc3c2)n1 | -2.96% |
| O=C(NCc1ccco1)c1cc(-c2ccccc2)c(N2CCOCC2)s1 | 2.01% |
| COC(=O)c1ccccc1NC(=S)NC(=O)COc1ccc(C(C)C)cc1 | 3.19% |
| COC(=O)c1ccc(NC(=S)N2CCN(C)CC2)cc1 | -0.0495% |
| O=C(/C=C/c1cccs1)Nc1cccnc1 | -5.36% |
| CN(Cc1ccccc1)c1ccc(C(CC(N)=O)NC(=O)Cc2ccc(Br)cc2)cc1[N+](=O)[O-] (centres unmarked) | 14% |

| Structure (SMILES) | hERG current change (%, negative = inhibition) at 1uM |
| --- | --- |
| CCOC(=O)c1cccc(NC(=O)/C=C/c2ccc3c(c2)OCO3)c1 | 3.87% |
| O=C(O)CCCNC(=O)c1cncc(O)c1 | -8.94% |
| CCOC(=O)c1c(N)sc2c(OCC)c(Br)ccc12 | 8.57% |
| O=C(CCn1c2c(c3ccccc31)CCCC2)NNC(=O)c1ccccc1C(=O)O | 10.1% |
| Cc1c(C(=O)Nc2ccccc2)cc(-c2ccccc2)n1CCCN1CCOCC1 | 9.02% |
| CCN(CC(=O)Nc1ccccc1C(F)(F)F)C(=O)c1cc2c(s1)CCCCC2 | -0.525% |
| Cc1nc(Nc2ccc(Cl)cc2)c(C#N)c(=O)[nH]1 | 15.2% |
| CCOC(=O)Cc1cc(-c2ccc(OC)cc2)nc2ccc3ccccc3c12 | 0.958% |
| CCCCn1c(C)c(C(=O)OCC)c2c(CN3CCCC3)c(O)ccc21 | -27.7% |
| Cc1ccc(C)n1/N=C1/NC(=O)CS1 | 5.1% |
| Cc1cc(N2CCOCC2)n2nc(C)c(-c3ccc(Cl)cc3)c2n1 | 7.28% |
| COc1cc2cc(CN(C(=O)Nc3ccccc3)C3CCCC3)c(=O)[nH]c2cc1OC | -6.42% |
| CC(C)NC(=O)NNC(=O)c1nn(-c2ccc(F)cc2)ccc1=O | 5.13% |
| O=C1CSC(c2ccc(Cl)cc2)N1Nc1nc(N2CCOCC2)nc(N2CCOCC2)n1 (centres unmarked) | 12.2% |
| O=C(C1=C(O)C(=O)N(CC2CCCO2)C1c1ccccc1)c1ccco1 (centres unmarked) | 16% |
| CC(=O)Nc1ccc2nc(N)sc2c1 | 9.3% |
| CCOc1cccc(/C=N/NC(=S)Nc2cc(S(=O)(=O)N3CCOCC3)ccc2N2CCOCC2)c1O | 13.9% |
| COc1cc(-c2nc(C(=O)NCC3CCCO3)cc3c2[nH]c2ccccc23)cc(OC)c1OC (centres unmarked) | 8.16% |
| COc1ccc(-c2cnnn2-c2ccc(NC(=O)/C=C/c3ccc(OC)c(OC)c3)cc2)cc1 | -3.76% |
| Nn1nnc2ccccc21 | 0.917% |
| CCOC(=O)c1c(C)c(C(=O)N2CCN(c3ccccc3)CC2)c(C)n1C | 11.2% |
| Cc1cc(=O)c2cccc(Br)c2[nH]1 | 7.87% |
| Cc1cc(-c2ccc(N=Nc3c(S(=O)(=O)[O-])cc4cc(S(=O)(=O)[O-])cc(N)c4c3O)c(C)c2)ccc1N=Nc1c(S(=O)(=O)[O-])cc2cc(S(=O)(=O)[O-])cc(N)c2c1O.[Na+] | 15.1% |

Source: paper PMC4336329 (PLoS ONE, 2015)
